Measured values reported in PubChem BioAssay AID485294 (National Center for Advancing Translational Sciences (NCATS), 2010).
About 150 (0.041%) of roughly 370,000 compounds were called active. The inconclusive results got no clear call from the source; some entries with a clear call stand among them for comparison. Calls follow the shape of the dose curve; as a rule, active = well fitted inhibition curve with a large enough effect; inconclusive = small, poorly fitted or top-dose-only effect; inactive = flat fitted curve, though single readings scatter. No potency is given beside an inconclusive call; the fits are too rough.

target: Beta-lactamase (Escherichia coli (strain K12)) (UniProt P00811); assay: qHTS Inhibitors of AmpC Beta-Lactamase (assay with detergent); settings: AmpC hydrolysis of nitrocefin, absorbance 480 nm, 0.01% Triton; series mostly up to 114 µM; also: nearly all actives have a fitted effect of over 25% in size
Chain of UniProt P00811 (P00811 whole entry, looked up): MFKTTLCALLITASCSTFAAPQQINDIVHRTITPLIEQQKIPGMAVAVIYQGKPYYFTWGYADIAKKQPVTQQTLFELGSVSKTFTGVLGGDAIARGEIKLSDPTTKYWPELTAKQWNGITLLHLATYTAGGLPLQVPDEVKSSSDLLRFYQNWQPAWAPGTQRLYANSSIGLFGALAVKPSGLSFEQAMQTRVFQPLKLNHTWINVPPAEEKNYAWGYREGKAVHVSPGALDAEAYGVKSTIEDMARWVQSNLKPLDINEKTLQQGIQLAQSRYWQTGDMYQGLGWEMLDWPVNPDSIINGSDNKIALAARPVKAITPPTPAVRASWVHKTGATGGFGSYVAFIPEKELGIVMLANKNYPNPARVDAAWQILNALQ
Summary of the method: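 AmpC (5.3 nM in the dispensed reagent) in 20 mM phosphate pH 7.0 with 0.01% (detergent screen) or 0.0001% Triton X-100 was preincubated with compounds for 15 min at room temperature. Nitrocefin was then added from an 800 uM solution, and hydrolysis was followed at 480 nm.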
Potency is read from the fitted curve at half-maximal effect; tags tell the direction and shape of the fitted curve.

| SMILES | Potency |
| --- | --- |
| CCN1CCN(c2oc(-c3ccc([N+](=O)[O-])cc3)nc2C#N)CC1 | inconclusive [inhibitor, single point] |
| COC(=O)C1=C(C)N(Cc2ccccc2)C(=NCCCCO)N[C@H]1c1ccccc1 | inconclusive [inhibitor, partial curve] |
| COC(=O)C1CC(=O)N(Cc2ccccc2)C1 (centres undefined) | inconclusive [inhibitor, partial curve, poor fit] |
| NC(=O)C1CCN(c2nc(-c3ccccc3N)cs2)CC1 | inconclusive [inhibitor, full curve, poor fit] |
| NS(=O)(=O)c1ccc(N2N=C(c3ccccc3)CC2c2ccc(F)cc2)cc1 (centres undefined) | inactive |
| Cc1c(C(=O)NCCCN2CCCC2=O)oc2c(Cl)cccc12 | inconclusive [inhibitor, partial curve] |
| Cc1ccc(OCC(=O)NN=C2c3ccccc3-c3ccccc32)cc1 | inconclusive [inhibitor, single point] |
| Cc1nnc(SCc2nc3sc4c(c3c(=O)[nH]2)CCCC4)n(N)c1=O | inactive |
| Cc1ccc(CN2CCC(n3nccc3NC(=O)c3ccccc3C)CC2)o1 | inconclusive [inhibitor, full curve] |
| NC(=O)c1c(NC(=O)c2cccc(N3C(=O)CCC3=O)c2)sc2c1CCCCC2 | inconclusive [inhibitor, single point] |
| COc1ccc(N(C(=O)CNC(=O)c2ccco2)C(C(=O)NC2CCCCC2)c2ccco2)cc1 (centres undefined) | inconclusive [inhibitor, partial curve, poor fit] |
| Cc1nc(NC(=O)CSc2nc3cccnc3n2C2CCCCC2)sc1C | inconclusive [inhibitor, full curve, poor fit] |
| O=C(c1ccco1)N1CCN(Cc2cc(=O)c(OCc3ccc(F)cc3)co2)CC1 | inactive |
| FC(F)(F)c1ccc(C2=Nc3ccccc3NC(c3cccs3)=N2)cc1 | inactive |
| COC(=O)CCc1ccc(O)cc1 | inactive |
| COc1ccc(-c2noc3c2-c2nc(-c4cccc(C)c4)sc2CC3)cc1 | inconclusive [inhibitor, full curve, poor fit] |
| NS(=O)(=O)c1ccc(CCNC(=O)C(c2ccccc2)c2ccccc2)cc1 | inconclusive [inhibitor, partial curve, poor fit] |
| CC(=O)c1cnc2nc(SCc3ccc(C)cc3)nn2c1C | inconclusive [inhibitor, partial curve, poor fit] |
| CCn1ccnc1CN(C)C(=O)C1CCC(=O)N(Cc2cccc(F)c2)C1 (centres undefined) | inconclusive [inhibitor, single point] |
